Experimental data taken from patent publication US8642807B2, “Crystallized diacetylenic indicator compounds and methods of preparing the compounds” (Temptime Corporation, priority 2007, dated 2014).
The source gives many values for each of these; only a part stands here.

Assay: Solubility test: ability of each solvent to dissolve at least 1 percent by weight at a process temperature near its boiling point (Example 1)
Format: physicochemical
Excerpt: This example illustrates solvent mapping, testing and solubility region definition for a diacetylenic monomer for which new solvents and solubility information are desired, namely 2,4-hexadiyn-1,6-bis(ethylurea) and for which reliable solubility parameter information is not available. In this example, solubility points are mapped for each of a number of representative samples of a wide range of solvents of different chemical types and physicochemical characteristics, according to their solubility parameters. The solubility points of the representative solvents (filled squares) are mapped on a plot of hydrogen bonding (δH), on the Y-axis, versus polar parameters (δP), on the X-axis, generating a map such as that shown in FIG. 4. Also shown in FIG. 4 are solubility points for solvent systems comprising 25 percent by weight water/solvent mixtures (unfilled squares).
Each solvent is tested for its ability to dissolve at least 1 percent by weight 2,4-hexadiyn-1,6-bis(ethylurea) at a temperature not more than 5° C. above the boiling point of the solvent. Because the boiling points of the solvents tested vary widely, ranging from 56° C. to 189° C. the solvents are processed in batches at temperatures of 60, 75, 82, and 90° C., respectively. The process temperature desirably is not greater than 4 to 5° C. above a given solvent's boiling point.
Some exemplary solubility data obtainable for 2,4-hexadiyn-1,6-bis(ethylurea) from the above-described solubility test with the solvents indicated, are set forth in Table 1 below along with solubility parameter information for the solvents. Also included in Table 1 are data regarding the 25 percent by weight water/solvent mixtures.

CCNC(=O)NCC#CC#CCNC(=O)NCC [KE, 2,4-hexadiyn-1,6-bis(ethylurea)]
KE soluble at 1% wt? (solvent 1,2-Dichlorobenzene, process T 90 °C): No | KE soluble at 1% wt? (solvent 1-Propanol, process T 82 °C): Yes | KE soluble at 1% wt? (solvent 2-Propanol (IPA), process T 82 °C): Yes | KE soluble at 1% wt? (solvent 25% Water/Acetone, process T 60 °C): Yes | KE soluble at 1% wt? (solvent 25% Water/DMF, process T 90 °C): Yes | KE soluble at 1% wt? (solvent 25% Water/DMSO, process T 90 °C): Yes | KE soluble at 1% wt? (solvent 25% Water/Ethanol, process T 82 °C): Yes | KE soluble at 1% wt? (solvent 25% Water/IPA, process T 82 °C): Yes | KE soluble at 1% wt? (solvent 25% Water/acetic acid, process T 90 °C): Yes | KE soluble at 1% wt? (solvent 25% Water/formic acid, process T 90 °C): Yes | KE soluble at 1% wt? (solvent Acetic acid, process T 90 °C): Yes | KE soluble at 1% wt? (solvent Acetone, process T 60 °C): No | KE soluble at 1% wt? (solvent Acetonitrile, process T 82 °C): No | KE soluble at 1% wt? (solvent Cellosolve ® acetate, process T 90 °C): No | KE soluble at 1% wt? (solvent Chloroform, process T 60 °C): No | KE soluble at 1% wt? (solvent Cyclohexane, process T 82 °C): No | KE soluble at 1% wt? (solvent DMF, process T 90 °C): Yes | KE soluble at 1% wt? (solvent DMSO, process T 90 °C): Yes | KE soluble at 1% wt? (solvent E3EP (ethyl 3-ethoxypropionate), process T 90 °C): No | KE soluble at 1% wt? (solvent Ethylene glycol, process T 90 °C): Yes | KE soluble at 1% wt? (solvent Formic acid, process T 90 °C): Yes | KE soluble at 1% wt? (solvent Glycerol, process T 90 °C): No | KE soluble at 1% wt? (solvent Methanol, process T 60 °C): Yes | KE soluble at 1% wt? (solvent Pyridine, process T 90 °C): Sparingly | KE soluble at 1% wt? (solvent Toluene, process T 90 °C): No | KE soluble at 1% wt? (solvent Water, process T 90 °C): No
